In experiment [1] the target is Signal transducer and activator of transcription 3 (Stat3) (human (endogenous in T24 cells and bladder tissue)) (UniProt P40763). In words: condition: only in samples with cytoplasmic, but not nuclear, expression of Blcap; proximity ligation; Duolink in situ PLA on an FFPE bladder tissue section with cytoplasmic, but not nuclear, expression of Blcap.
The target is the same in experiment [2]. In words: co-IP; nuclear fraction (NE-PER kit) of IL-6 stimulated T24 cells; IP with anti-Stat3 antibody, immunoblot for Blcap.
For experiment [3] the target is unchanged. In words: condition: only cytoplasmic fraction of IL-6 stimulated T24 cells; co-IP; cytoplasmic fraction (NE-PER kit) of IL-6 stimulated T24 cells; IP with anti-Stat3 antibody, immunoblot for Blcap.
The target is the same in experiment [4]. In words: co-IP; T24 cell lysates, cells stimulated or not with IL-6 (20 ng/ml, 6 h); IP with anti-Stat3 antibody on Protein G-Dynabeads, immunoblot for Blcap; lysis buffer 25 mM Tris, 150 mM NaCl, 1 mM EDTA, 1% NP-40, 5% glycerol, pH 7.4.
For experiment [5] the target is unchanged. In words: proximity ligation; Duolink in situ PLA on FFPE bladder cancer tissue sections with strong nuclear expression of Blcap and Stat3; rabbit anti-Blcap and mouse anti-Stat3 primary antibodies.

The chains behind the UniProt entries cited, without tags or fusion partners.
UniProt P40763: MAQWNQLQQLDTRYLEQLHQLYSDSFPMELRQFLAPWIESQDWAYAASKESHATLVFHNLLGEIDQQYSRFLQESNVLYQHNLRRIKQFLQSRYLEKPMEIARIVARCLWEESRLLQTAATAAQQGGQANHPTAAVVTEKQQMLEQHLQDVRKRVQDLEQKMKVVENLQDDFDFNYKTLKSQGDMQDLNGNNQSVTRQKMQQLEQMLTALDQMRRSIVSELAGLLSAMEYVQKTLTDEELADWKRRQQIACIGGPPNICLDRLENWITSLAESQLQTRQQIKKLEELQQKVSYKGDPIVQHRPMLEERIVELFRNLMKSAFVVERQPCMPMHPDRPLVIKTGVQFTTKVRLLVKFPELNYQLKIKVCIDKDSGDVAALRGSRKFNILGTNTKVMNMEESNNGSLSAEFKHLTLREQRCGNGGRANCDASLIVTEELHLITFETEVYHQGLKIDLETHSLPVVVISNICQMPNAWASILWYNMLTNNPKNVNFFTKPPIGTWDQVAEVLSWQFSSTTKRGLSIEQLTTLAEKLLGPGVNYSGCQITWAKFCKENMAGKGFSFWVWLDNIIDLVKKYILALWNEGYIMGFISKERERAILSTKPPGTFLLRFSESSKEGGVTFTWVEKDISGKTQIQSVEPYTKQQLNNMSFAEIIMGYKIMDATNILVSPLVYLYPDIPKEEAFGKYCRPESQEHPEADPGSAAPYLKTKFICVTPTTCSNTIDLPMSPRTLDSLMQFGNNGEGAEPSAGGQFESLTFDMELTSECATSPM

The source of these data is publication PMC5708675.

These are yes or no findings as the source states them, for the method shown. In cells and extracts the contact can be indirect. Some entries that bind do so weakly or less than the wild type.

B1: Bladder Cancer Associated Protein (Blcap) (protein, UniProt P62952 1-87)
chain: MYCLQWLLPVLLIPKPLNPALWFSHSMFMGFYLLSFLLERKPCTICALVFLAALFLICYSCWGNCFLYHCSDSPLPESAHDPGVVGT
For the molecule B1, the binding result in experiment [1] is reported as “no binding”; in experiment [2], “binds”; in experiment [3] it was “no binding”; in experiment [4] it was “binds”; in experiment [5], “binds”.
